B1: TPR 5TU (parent)
chain: GGAUCUUCUCGAUCUAACAAAAAAGACAAAUCUGCCACAAAGCUUGAGAGCAUCUUCGGAUGCAGAGGCGGCAGCCUUCGGUGGCGCGAUAGCGCCAACGUUCUCAACUAUGACACGCAAAACGCGUGCUCCGUUGAAUGGAGUUUAUCAUG

This sample is rich in variants without activity.

The results in this text go back to the RNAGym collection of RNA variant scans (doi:10.1073/pnas.2313332121).

Variants of B1 are the subject of this data set. Description: polymerase ribozyme fitness, log enrichment relative to wild type (log ratio); higher = more active; in vitro selection for triplet polymerase activity. The method in brief:
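A single round of triplicate in vitro selection, including frozen incubation at −7 °C, was applied to PCR-built, transcribed mutant libraries of each subunit of a heterodimeric triplet polymerase ribozyme. Illumina sequencing of input and output libraries retained genotypes with ≥10 input reads and ≥1 read per output. Fitness is the base-2 logarithm of genotype enrichment divided by wild-type enrichment, from inverse-variance-weighted replicate averages.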
In the case of A26C A37C U44G A52U A73U G80A G84U C95G, the “polymerase ribozyme fitness (log ratio)” value is no more than -4.2.

Consider A26U A49G G50A U55A G136C, for which the “polymerase ribozyme fitness (log ratio)” value was no more than -4.2. On to A26G C76G C87A C125G U134G, for which the “polymerase ribozyme fitness (log ratio)” value is no more than -4.2. To G25U C32A G58C G94C belongs no more than -4.2.

A26C C35U A40G G74A C75U: the “polymerase ribozyme fitness (log ratio)” value is no more than -4.2. To A26G G58A C105G G117C U127G belongs no more than -4.2; to G25U A41U C87G, no more than -4.2. Under G25U C63G G88C C108U stands -3.94; under A26C A66U U78G G92A, no more than -4.2; under G25U C79U G94U C95A G143A, no more than -4.2. On to A26G A66C A73U A89U C125U, for which the “polymerase ribozyme fitness (log ratio)” value is no more than -4.2. Turning to A26G G62C U77G C96U C118U, the “polymerase ribozyme fitness (log ratio)” value is no more than -4.2. In the case of A26U C57U C118G U144C, the “polymerase ribozyme fitness (log ratio)” value is no more than -4.2. A26G A37C C38U G59A C87U C99U C118A A121G G136A: the “polymerase ribozyme fitness (log ratio)” value was no more than -4.2.

For A26U C35G C38U A49C G50C C76U G92U C93G A119U A120G, the “polymerase ribozyme fitness (log ratio)” value is no more than -4.2. On to G25C C27U U45C G71U U82A G83A G92U, for which the “polymerase ribozyme fitness (log ratio)” value was no more than -4.2. Regarding A26U A60G C76U C85U C87G G140C, the “polymerase ribozyme fitness (log ratio)” value is no more than -4.2. Consider A26C U56C A66C G84C C99U C131U A137U, for which the “polymerase ribozyme fitness (log ratio)” value was no more than -4.2. Consider A26U C27U G59U G71C G86A C132A, for which the “polymerase ribozyme fitness (log ratio)” value is no more than -4.2.

With A26G A60C U61G A64C G65A U90G C96A A106G A110U A150U, the “polymerase ribozyme fitness (log ratio)” value is no more than -4.2. Consider G25U A49C C85G A97G, for which the “polymerase ribozyme fitness (log ratio)” value was no more than -4.2.

Take A26U A73U G74U C96A: the “polymerase ribozyme fitness (log ratio)” value is no more than -4.2. Consider A26U A41C G86U, for which the “polymerase ribozyme fitness (log ratio)” value was no more than -4.2. As for A26C C27U A64U C75A C79G A147G C149G, the “polymerase ribozyme fitness (log ratio)” value was no more than -4.2.

With A26U C69U U90G A107U, the “polymerase ribozyme fitness (log ratio)” value is no more than -4.2. As to G25C A40C C57U C85A C99U, the “polymerase ribozyme fitness (log ratio)” value was no more than -4.2. Regarding A26U A39C C85U G86U G141C, the “polymerase ribozyme fitness (log ratio)” value is no more than -4.2. A26C U78C C105A A115G U134A: the “polymerase ribozyme fitness (log ratio)” value was no more than -4.2.

Regarding G25U G50A C95A C105A C114U C116A, the “polymerase ribozyme fitness (log ratio)” value is no more than -4.2. To A26G C27A C87G U101G G133C belongs no more than -4.2; to A26C U44C U61G C93U U130A C132G, no more than -4.2; to A26U A41G U53A U55A A91U U148G, no more than -4.2. As to A26U A49C U53G G68A C96A, the “polymerase ribozyme fitness (log ratio)” value is no more than -4.2.

As to A26C A30G G46C C51A G86A U127A, the “polymerase ribozyme fitness (log ratio)” value was no more than -4.2. As to G25U C43A U56A C75G G136C, the “polymerase ribozyme fitness (log ratio)” value was no more than -4.2. Consider G25C C36U C87G A91U G100C C103U, for which the “polymerase ribozyme fitness (log ratio)” value was no more than -4.2. For the variant G25C G59U G74A G88A G140U, the “polymerase ribozyme fitness (log ratio)” value was no more than -4.2.

On to A26U C38G C57U A119G A150C, for which the “polymerase ribozyme fitness (log ratio)” value is no more than -4.2. Under A26U C36A G58C A89G G94U A138G stands no more than -4.2; under G25C C27A C35U C63G A64C C85U A97U C114G, no more than -4.2. With A26U G140C, the “polymerase ribozyme fitness (log ratio)” value is no more than -4.2. For the variant A26U U31C A39U U90C, the “polymerase ribozyme fitness (log ratio)” value was no more than -4.2.

G25U A41U G94U A138C U139C G140A A142C: the “polymerase ribozyme fitness (log ratio)” value is no more than -4.2. With A26U C79G C103A C149A, the “polymerase ribozyme fitness (log ratio)” value is no more than -4.2. A26U C85A C114U: the “polymerase ribozyme fitness (log ratio)” value is no more than -4.2. A26C C87A U104G C105U C125G G141A U148G: the “polymerase ribozyme fitness (log ratio)” value is no more than -4.2. To A26C C27G U33G U44A U45A U55A C85U C114A G133C belongs no more than -4.2; to A26C A47G G50U G58A G59U C85A C118U, no more than -4.2; to G25U C76G G83U A138C, no more than -4.2.

For the variant A26G U55A U56C C69U C87A G126A C129U, the “polymerase ribozyme fitness (log ratio)” value is no more than -4.2. For the variant A26U A73U G88A A107C C114G, the “polymerase ribozyme fitness (log ratio)” value is no more than -4.2.

For the variant G25C G50A G65A G88C A121U, the “polymerase ribozyme fitness (log ratio)” value was no more than -4.2. To A26C C27G G34A U55A belongs no more than -4.2; to A26C G68A C75A G84A C103A C105U, no more than -4.2; to A26U C76A C87U G92U G140U, no more than -4.2. Consider A26U C32G U61A G62U A107G C149G, for which the “polymerase ribozyme fitness (log ratio)” value was no more than -4.2.

G25U A40U A47G C79A A119U U144G: the “polymerase ribozyme fitness (log ratio)” value was no more than -4.2. For the variant A26U G34U, the “polymerase ribozyme fitness (log ratio)” value is no more than -4.2.

A26U C43G C85G C132U: the “polymerase ribozyme fitness (log ratio)” value is no more than -4.2.

In the case of A26G A29C U61A U148G, the “polymerase ribozyme fitness (log ratio)” value is no more than -4.2.

Turning to A26C C35U C43U C87G, the “polymerase ribozyme fitness (log ratio)” value was no more than -4.2.

Regarding A26U A39U A89C G92U U109G A110U C149A, the “polymerase ribozyme fitness (log ratio)” value was no more than -4.2. For A26G U55G C87A A115U C118U C149G, the “polymerase ribozyme fitness (log ratio)” value was no more than -4.2.

In the case of A26G A49U C87A, the “polymerase ribozyme fitness (log ratio)” value is no more than -4.2. To A26U A52C U82C C105U belongs no more than -4.2; to A26U C87U, -1.74; to A26U C43G U44G A49U G50A C87A A115C, no more than -4.2. With G25U G100U, the “polymerase ribozyme fitness (log ratio)” value was no more than -4.2. As for G25U C99A U104G, the “polymerase ribozyme fitness (log ratio)” value is no more than -4.2. Under A26G G83U G86A A98U G141U stands no more than -4.2; under G25C C32U U53A G59C A91U C103G U111C, no more than -4.2.

G25U U31C G84U C108A: the “polymerase ribozyme fitness (log ratio)” value is no more than -4.2. To G25C C54U C75G U90C C93A G117U belongs no more than -4.2; to A26C C38U C118G U130G, no more than -4.2; to G25C A29C C38G A39C C72A A137G G141C, no more than -4.2. Under G25U A49C G88U A97G stands no more than -4.2; under A26U A52C G88C U135C, no more than -4.2. On to A26G A41G A47U C132U A142U, for which the “polymerase ribozyme fitness (log ratio)” value was no more than -4.2. With A26C G50U A120U U135C G136U U144G, the “polymerase ribozyme fitness (log ratio)” value was no more than -4.2. For the variant A26G A47G A91U C95G C99G A106C, the “polymerase ribozyme fitness (log ratio)” value was no more than -4.2. On to G25C C79G G92U, for which the “polymerase ribozyme fitness (log ratio)” value is no more than -4.2.

Turning to G25U U45G U56A G86A U148G, the “polymerase ribozyme fitness (log ratio)” value was no more than -4.2. For A26C U53A C85U C116A U151A, the “polymerase ribozyme fitness (log ratio)” value was no more than -4.2.
